# Source: PubChem BioAssay AID504832 (National Center for Advancing Translational Sciences (NCATS), 2011)
# Among all 310,000 compounds or so, about 18,000 (5.8%) were called active. The shares of active, inactive and inconclusive entries below differ from those in the screen. Calls follow the shape of the dose curve; as a rule, active = well fitted inhibition curve with a large enough effect; inconclusive = small, poorly fitted or top-dose-only effect, or another doubt; inactive = no such curve, though single readings can be large or run the other way. Potencies of inconclusive entries are left out as doubtful fits.
# Experiment: Primary qHTS for delayed death inhibitors of the malarial parasite plastid, 48 hour incubation
# Settings: P. falciparum luciferase growth in erythrocytes; series mostly up to 28.7 µM
# How it was run: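 Erythrocytes infected with P. falciparum carrying an integrated firefly luciferase reporter (2% hematocrit, 0.1% parasitemia final) were exposed to compounds in RPMI 1640 with 0.5% Albumax at 37 C, 5% CO2. Growth inhibition was scored as reduced luminescence.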
# Potency is read from the fitted curve at half-maximal effect; tags tell the direction and shape of the fitted curve.
row,SMILES,Potency
1,Cc1csc(CNc2ncnc3ccc(-c4ccc5c(c4)OCO5)cc23)c1,active: 10.4 µM
2,COc1cc(/C=C2/SC(=S)N(CC3CCCO3)C2=O)ccc1O (stereo unspecified),inactive
3,O=C(Cc1ccccc1)Nc1ccc(Cl)cn1,inactive
4,COCCCNc1nc2nonc2nc1N1CCN2CCCC2C1 (stereo unspecified),"inconclusive [inhibitor, partial curve, poor fit]"
5,COc1ccccc1OCc1nc2ccccc2n1C,inactive
6,COc1ccc(-c2noc(CN(C(=O)c3c(-c4ccccc4Cl)noc3C)C(C)C)n2)cc1,active: 10.4 µM
7,COc1ccc(-n2c(Cc3cccn3C)nnc2SCC(=O)Nc2ccccc2OC)cc1,active: 13.1 µM
8,COc1ccc(-c2ccc(N(C)C)cc2)cc1[C@H]1[C@@H]2C=CCC[C@@]2(C)C(=O)N1Cc1ccccc1,active: 9.28 µM
9,COC(=O)C1=C(c2ccc(F)cc2OCc2ccccc2)C[C@@H]2CC[C@H]1N2C(=O)N1CCC(C)CC1,active: 7.38 µM
10,O=C(CSc1nc2ccccc2c(=O)n1CCCN1CCOCC1)Nc1cccc(S(=O)(=O)N2CCCCCC2)c1,active: 0.522 µM
11,COc1ccc(CN2C(=O)CS/C2=N/N=C/c2ccccc2)cc1,inactive
12,COc1ccc(CNC2CC(C)N(C)CC2C)cc1OC (stereo unspecified),active: 10.4 µM
13,CN1CCN(c2ccc(S(=O)(=O)N3CCOCC3)cc2NC(=O)COc2ccc(F)cc2Cl)CC1,"inconclusive [inhibitor, partial curve]"
14,CC(C)(C)NC(=O)CN(CCN1CCOCC1)C(=O)CNS(=O)(=O)c1ccc(Cl)cc1,inactive
15,Cc1ccccc1OCC(=O)NNC(=O)c1cc(S(=O)(=O)N2CCOCC2)ccc1N1CCCC1,"inconclusive [inhibitor, partial curve, poor fit]"
16,CC1CCN(CC(O)CN2c3ccccc3Sc3ccccc32)CC1 (stereo unspecified),"inconclusive [inhibitor, single point]"
17,O=C(Nc1ccccc1)N1CCN(c2nc(-c3ccccc3)ns2)CC1,"inconclusive [inhibitor, partial curve, poor fit]"
18,Cc1cc(N2CCC(C)CC2)nc(-n2nc(C)cc2C)n1,active: 0.738 µM
19,COc1ccc(N(CC(=O)NCc2ccncc2)S(=O)(=O)c2ccc(C)c([N+](=O)[O-])c2)cc1,active: 1.85 µM
20,Cc1onc(-c2ccccc2Cl)c1C(=O)OCC(=O)N1CCN(c2ccccc2)CC1,"inconclusive [inhibitor, single point]"
21,O=C(NCCCc1ccccc1)c1cc([N+](=O)[O-])ccc1Cl,"inconclusive [inhibitor, single point]"
22,c1ccc(Cn2nnnc2C(c2ccccn2)N2CCN(c3ccccc3)CC2)cc1 (stereo unspecified),"inconclusive [inhibitor, full curve, poor fit]"
23,Cc1nn(C)c(Oc2ccccc2)c1CCNC(=O)C(C)(C)C,"inconclusive [inhibitor, single point]"
24,Cc1ccc(-n2c(SCC(=O)Nc3cc(C)on3)nc3c([nH]c4ccccc43)c2=O)cc1,"inconclusive [inhibitor, partial curve]"
25,Cc1cc(C)cc(C(=O)O/N=C(\N)c2ccc(Br)cc2)c1,"inconclusive [inhibitor, single point]"
26,COc1cc(C(=O)OC2CSCC2NC(=O)c2ccccc2)cc(OC)c1OC (stereo unspecified),"inconclusive [inhibitor, partial curve]"

row,SMILES,Potency
1,Cc1ccccc1CC1(CO)CCCN(Cc2nc(-c3cccs3)oc2C)C1 (stereo unspecified),"inconclusive [inhibitor, single point]"
2,C[C@H]1CC[C@]2(O[C@H](CCO)C[C@@H](O)[C@@H]2O)O1,inactive
3,Nc1nc2n(n1)C(c1ccc(F)cc1)CC(c1ccc(F)cc1)N2 (stereo unspecified),inactive
4,c1ccc2c(c1)CSc1ccccc1C2C1=NCCN1 (stereo unspecified),inactive
5,CCCCNS(=O)(=O)c1ccc(S(=O)(=O)NCc2ccncc2)cc1,inactive
6,COc1ccc(C(=O)NC(C)c2nnc(SCC(=O)NC3CCCC3)n2C)cc1 (stereo unspecified),inactive
7,CCO/C=C1\SC(=S)N(c2ccc(Cl)cc2)C1=O,inactive
8,COc1cc(C(=O)Nc2cc(-c3ccccc3)[nH]n2)cc(OC)c1OC,active: 11.7 µM
9,CS(=O)(=O)Nc1cccc(C2=NN(S(C)(=O)=O)C(c3ccccc3)C2)c1 (stereo unspecified),inactive
10,Oc1ccc(-c2csc(Nc3cccc4ccccc34)n2)cc1O,"inconclusive [inhibitor, single point]"
11,O=C(NN1C(=O)c2ccccc2C1=O)C1CCCCC1,"inconclusive [inhibitor, partial curve, poor fit]"
12,CCn1c(SCC(=O)Nc2cc(C)on2)nc2c([nH]c3ccccc32)c1=O,inactive
13,CCN1CCN(C(=O)C(N)Cc2ccccc2)CC1 (stereo unspecified),inactive
14,Cc1ccccc1C(=O)Nc1nnc(SC(C)C)s1,inactive
15,Cc1ccccc1C(=O)N1CCN=C1SCc1ccc([N+](=O)[O-])cc1,"inconclusive [inhibitor, full curve, poor fit]"
16,COc1cc2c(C(=O)NCCCN3CCN(c4cccc(Cl)c4)CC3)cn(C)c(=O)c2cc1OC,"inconclusive [inhibitor, full curve, poor fit]"
17,COc1ccccc1-c1nnc(C2CCN(S(=O)(=O)c3cccc([N+](=O)[O-])c3)CC2)o1,"inconclusive [inhibitor, full curve]"
18,O=C(Cn1cc(C(=O)c2cccs2)c2ccccc21)NCc1cccs1,"inconclusive [inhibitor, single point]"
19,CC(Oc1ccccc1)C(=O)Nc1nc(-c2ccccn2)cs1 (stereo unspecified),active: 1.85 µM
20,COc1ccc(CCNc2nc(-c3ccc(O)cc3)cs2)cc1OC,"inconclusive [inhibitor, single point]"
21,CCCCn1c(N)c(N(CC)C(=O)Cc2ccc(S(=O)(=O)N3CCOCC3)s2)c(=O)[nH]c1=O,inactive
22,CCC(C)N(C(=O)CCC(=O)Nc1cc(C)on1)C(C(=O)NC(C)(C)C)c1ccccc1Cl (stereo unspecified),"inconclusive [inhibitor, partial curve]"
23,O=C(CSc1nnc(COc2ccccc2)o1)N1CCOCC1,"inconclusive [inhibitor, partial curve, poor fit]"
24,O=C(NCc1ccccc1)C1=C[C@H](c2csc3ccccc23)C[C@H](OCCCCO)O1,"inconclusive [inhibitor, partial curve, poor fit]"
25,COC(=O)C1NN=C(C(=O)c2ccc(Br)cc2)C1c1cccc(Br)c1 (stereo unspecified),"inconclusive [inhibitor, single point]"
26,O=c1cc[nH]c2c(Cl)cccc12,inactive

row,SMILES,Potency
1,COc1cc(NC(=O)CNc2ccc(Cl)c(S(=O)(=O)N3CCOCC3)c2)cc(OC)c1,active: 5.22 µM
2,O=c1c2cc(N3CCOCC3)ccc2[nH]c(=S)n1CC1CCCO1 (stereo unspecified),inactive
3,CC(C)NC(=O)NC1C2CC3CC(C2)CC1C3 (stereo unspecified),"inconclusive [inhibitor, single point]"
4,CCOC(=O)CCCCC(=O)c1[nH]c(=O)[nH]c1CSc1nnc2c3cc(Br)ccc3n(C)c2n1,active: 10.4 µM
5,O=C(CSc1ccc(-c2nc3ccccc3[nH]2)cn1)N1CCN(C(=O)c2ccco2)CC1,active: 13.1 µM
6,CC(=O)c1cccc(Nc2cc(C)nc3c(C)cc(C)cc23)c1,active: 9.28 µM
7,Cn1c(=O)c2c(nc(CN3CCN(c4ccccc4)CC3)n2Cc2ccccc2Cl)n(C)c1=O,active: 6.57 µM
8,COc1ccc2nc(C)cc(Nc3ccc(N4CCOCC4)cc3)c2c1,active: 2.94 µM
9,COc1cc([N+](=O)[O-])cc2sc(NC(=O)C(C)(C)C)nc12,inactive
10,CCOc1ccc(/C=N/n2nnnc2N)cc1OCC,"inconclusive [inhibitor, single point]"
11,CC/C(=N/Nc1ccc(Cl)cc1)c1cnnc(SC)n1,"inconclusive [inhibitor, single point]"
12,CCOc1ccc(/C=C/c2nc(C#N)c(NCCCN(C)C)o2)cc1,"inconclusive [inhibitor, single point]"
13,COC(=O)N/N=C/c1cn(Cc2ccccc2Cl)c2ccccc12,inactive
14,O=C1c2ccccc2CCCC12N=NCC2c1cccc2ccccc12 (stereo unspecified),active: 2.62 µM
15,C=CCNc1nc(-c2sc(NC(=O)CC)nc2C)cs1,"inconclusive [inhibitor, single point]"
16,CCCCCC(C)NC(=O)c1cc(S(=O)(=O)N2CCCCC2)ccc1N1CCOCC1 (stereo unspecified),active: 13.1 µM
17,CCOC(=O)C(C)n1nc(-c2ccccc2)c2ccccc2c1=O (stereo unspecified),"inconclusive [inhibitor, partial curve, poor fit]"
18,CCOC(=O)[C@@H]1[C@H]2COc3ccc(Br)cc3[C@H]2N2C(=O)N(c3cccc(F)c3)C(=O)[C@]12C,"inconclusive [inhibitor, partial curve, poor fit]"
19,CC(C)CN1CCC(=O)N([C@H](CO)c2ccccc2)CC1,inactive
20,CCCCN(C(=O)CSc1ncn[nH]1)c1c(N)n(Cc2ccccc2)c(=O)[nH]c1=O,inactive
21,COc1ccc2c(c1)O/C(=C\c1ccccc1C)C2=O,inactive
22,COCCC1CCCCN1C(=O)c1cccc(OC2CCN(S(C)(=O)=O)CC2)c1 (stereo unspecified),inactive
23,COc1ccccc1NC(=O)c1ccc(NC(=O)C2COc3ccccc3O2)cc1 (stereo unspecified),inactive
24,O=C(COC(=O)c1ccco1)NCC1CCCCC1,inactive
